Results as given in the supplement of paper PMC9588766.
Counter-ions that a name gives are not always drawn. In all, about 1,900 compounds were measured (“cell viability of compound + 1 nM pemigatinib relative to pemigatinib-only (DMSO) wells”: median about 0.95, lowest 2% from about 0.22 on). This is one part of the list.

Test system: PDC-DUC18828
Assay: cell viability of compound + 1 nM pemigatinib relative to pemigatinib-only (DMSO) wells (fraction); PDC-DUC18828 is a patient-derived cholangiocarcinoma cell line; higher = less growth inhibition
Conditions: first compound 1 µM; pemigatinib concentration 1 nM; 72 h
Experimental: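 Selleck Bioactive library screen in the patient-derived FGFR2 fusion-positive ICC cell line PDC-DUC18828 (500 cells/well). Each compound was tested at 1 uM with 1 nM pemigatinib, in triplicate, for 72 h. Viability was read by CellTiter-Glo and normalised to plate DMSO controls. Value is the paper's averaged normalised viability.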

SMILES	cell viability
CS(=O)(=O)c1ccc(-c2nnc(/C=C/c3nnc(-c4ccc(C#N)cc4)o3)n2-c2ccccc2Cl)nc1 + CCN1C(=O)N(c2c(F)c(OC)cc(OC)c2F)Cc2cnc3[nH]c(CN4CCOCC4)cc3c21 [pemigatinib]	0.735
c1coc(CNc2ncnc3[nH]cnc23)c1 [Kinetin] + CCN1C(=O)N(c2c(F)c(OC)cc(OC)c2F)Cc2cnc3[nH]c(CN4CCOCC4)cc3c21 [pemigatinib]	0.945
C[C@]12CCC3=C4CCC(=O)C=C4CC[C@H]3[C@@H]1CC[C@@]2(O)CC#N [Dienogest] + CCN1C(=O)N(c2c(F)c(OC)cc(OC)c2F)Cc2cnc3[nH]c(CN4CCOCC4)cc3c21 [pemigatinib]	0.99
C[C@@H]1C[C@H]2[C@@H]3CCC4=CC(=O)C=C[C@]4(C)[C@@]3(Cl)[C@@H](O)C[C@]2(C)[C@@]1(OC(=O)c1ccco1)C(=O)CCl [Mometasone furoate] + CCN1C(=O)N(c2c(F)c(OC)cc(OC)c2F)Cc2cnc3[nH]c(CN4CCOCC4)cc3c21 [pemigatinib]	0.89
CCOC(=O)[C@H](CCc1ccccc1)N[C@@H](C)C(=O)N1C(=O)N(C)C[C@H]1C(=O)O [Imidapril HCl] + CCN1C(=O)N(c2c(F)c(OC)cc(OC)c2F)Cc2cnc3[nH]c(CN4CCOCC4)cc3c21 [pemigatinib]	1.04
CC[C@@H](C)Nc1cc(C(=O)N[C@H]2C[C@H]3CC[C@@H](C2)N3c2ccc(C(=O)C3CC3)cn2)c(C)cc1C(N)=O + CCN1C(=O)N(c2c(F)c(OC)cc(OC)c2F)Cc2cnc3[nH]c(CN4CCOCC4)cc3c21 [pemigatinib]	0.294
OCCN(CCO)c1nc(N2CCCCC2)c2nc(N(CCO)CCO)nc(N3CCCCC3)c2n1 [Dipyridamole] + CCN1C(=O)N(c2c(F)c(OC)cc(OC)c2F)Cc2cnc3[nH]c(CN4CCOCC4)cc3c21 [pemigatinib]	0.894
Cc1ccc(NC(=O)c2cccc(C(C)(C)C#N)c2)cc1Nc1ccc2ncn(C)c(=O)c2c1 + CCN1C(=O)N(c2c(F)c(OC)cc(OC)c2F)Cc2cnc3[nH]c(CN4CCOCC4)cc3c21 [pemigatinib]	0.831
CC[C@H](CO)Nc1nc(NCc2ccccc2)c2ncn(C(C)C)c2n1 [Roscovitine (Seliciclib,CYC202)] + CCN1C(=O)N(c2c(F)c(OC)cc(OC)c2F)Cc2cnc3[nH]c(CN4CCOCC4)cc3c21 [pemigatinib]	0.98
CC(C)OC(=O)C1=CN(C(=O)c2ccc(F)c(F)c2)CC(C)(C)c2c1[nH]c1ccccc21 + CCN1C(=O)N(c2c(F)c(OC)cc(OC)c2F)Cc2cnc3[nH]c(CN4CCOCC4)cc3c21 [pemigatinib]	0.981
